# Assay results as given in PubChem BioAssay AID651820 (National Center for Advancing Translational Sciences (NCATS), 2012).
# In all, about 340,000 compounds went through this assay and about 12,000 (3.5%) were called active. Inconclusive means that the source gave no clear call. Such entries were picked first, then a sample of the others. The call rests on the fitted dose curve; in most records, active means well fitted inhibition curve with a large enough effect; inconclusive means small, poorly fitted or top-dose-only effect, or another doubt; inactive means no such curve, though single readings can be large or run the other way. Potencies of inconclusive entries are left out as doubtful fits.
# Assay: qHTS Assay for Inhibitors of Hepatitis C Virus (HCV)
# Settings: Huh7.5.1 HCVcc-Cre (HCVcc is cell-culture hepatitis C virus) infection, luciferase reporter, 44 h; series mostly up to 41.8 µM
# How it was run: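 Cells seeded at 1,000/well and cultured 4 h, then compounds added followed by HCVcc-Cre virus (~0.5 moi). After 44 h further culture, luciferase substrate was added, plates held 15 min at room temperature, and luminescence read for 15 sec.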
# Potency means the concentration at half of the fitted maximal effect; tags describe the fitted curve by direction and shape.
row,Compound,Potency
1,CCOc1ccc(NC(=O)c2cc([N+](=O)[O-])ccc2N2CCOCC2)cc1,"inconclusive [inhibitor, single point]"
2,CCN(CCCNC(=O)COc1cc(=O)n(CC)c2ccccc12)Cc1ccccc1,"inconclusive [inhibitor, single point]"
3,O=C(Nc1ccnc(-c2cccnc2)n1)c1ccccc1Cl,"inconclusive [inhibitor, single point]"
4,CCN1CCN(C(C(=O)NC2CCCC2)c2cc3c(cc2[N+](=O)[O-])OCO3)CC1 (configuration not stated),"inconclusive [inhibitor, single point]"
5,Cc1occc1C(=O)N/N=C/C1=C(N2CCOCC2)C(=C/c2ccc(Cl)cc2Cl)/CC1,"inconclusive [inhibitor, partial curve]"
6,COC(=O)c1ccc(NC(=O)Cc2ccc(C)cc2)cc1,inactive
7,Cc1cc(C)c(COc2ccc(/C=N/n3c(C)n[nH]c3=S)cc2)c(C)c1,inactive
8,Cc1ccc(-n2nc(C)c3c(C)c(CCC(=O)NC(C)c4ccccc4)c(C)nc32)cc1 (configuration not stated),inactive
9,CCOc1ccccc1NC(=O)CSc1nnc(CNC(=O)c2c(F)cccc2Cl)o1,"inconclusive [inhibitor, full curve]"
10,COc1ccc(CNC(=O)[C@H](C)N2C(=O)N3CCc4c([nH]c5ccc(OC)cc45)[C@@]3(C)C2=O)cc1,"inconclusive [inhibitor, partial curve]"
11,Cn1ccsc1=NC(=O)c1ccc([N+](=O)[O-])o1,"inconclusive [inhibitor, single point]"
12,COC(=O)C1=C(C)N(Cc2ccccc2)C(=NCC(C)C)N[C@H]1c1cccc(C(F)(F)F)c1,"inconclusive [inhibitor, single point]"
13,Oc1cccnc1SCc1ccccc1,inactive
14,O=C(COc1ccc(S(=O)(=O)N2CCc3ccccc32)cc1Cl)NCc1ccccn1,inactive
15,O=C(O)Cc1ccc2oc(-c3cccnc3)nc2c1,inactive
16,COc1ccc(NC(=O)Cn2c(=O)n(-c3ccccc3)c(=O)c3sccc32)c(OC)c1,inactive
17,COCC(C)n1c(SCc2ccc(OC)c(F)c2)nc2ccccc2c1=O (configuration not stated),"inconclusive [inhibitor, partial curve]"
18,O=C(Nc1ccc(S(=O)(=O)N2CCc3ccccc32)cc1)C(F)(F)F,inactive
19,O=C(NCCSc1c[nH]c2ccccc12)c1ccc(Br)o1,inactive
20,Cc1nn(-c2ccc(F)cc2)c2nc(N)c(C#N)c(-c3cccs3)c12,"inconclusive [inhibitor, single point]"
21,Cc1cc2c(cn1)C(CCC#N)(CCC#N)c1ccccc1-2,inactive
22,CN1CCN(c2ccc(NC(=O)c3ccc(C(F)(F)F)cc3)cn2)CC1,active: 11.2 µM
23,O=C(CSc1nc2ccccc2nc1N1CCCC1)Nc1ccc(F)cc1,"inconclusive [inhibitor, partial curve]"
24,Cc1cccc(N(CC(=O)NC2CC3CCC2C3)S(=O)(=O)c2ccccc2)c1 (configuration not stated),"inconclusive [inhibitor, partial curve]"

row,Compound,Potency
1,CC1(C)Oc2ccc3ccc(=O)oc3c2-c2cn[nH]c21,active: 7.08 µM
2,CC(C)OC(=O)C1C2C=CC3(CN(C(C)c4ccc(Br)cc4)C(=O)C13)O2 (configuration not stated),inactive
3,CCc1ccccc1S(=O)(=O)Cc1ccc(C(=O)NCc2ccc3c(c2)OCO3)o1,"inconclusive [inhibitor, partial curve]"
4,COc1ccccc1-c1nnc2sc(COc3ccc(Cl)cc3)nn12,"inconclusive [inhibitor, partial curve, poor fit]"
5,O=C(NC1CCCN(Cc2ccc(Cl)cc2)C1)c1ccccc1C(F)(F)F (configuration not stated),inactive
6,CCOC(=O)c1c(C)[nH]c2c1cc(O)c1ccccc12,"inconclusive [inhibitor, partial curve]"
7,N/N=C/C(=N\Nc1ccc(Cl)cc1)C(=O)c1ccncc1,active: 22.4 µM
8,CCCn1cnc2cc(NCc3cccc(OC)c3)ccc21,"inconclusive [inhibitor, single point]"
9,Cc1ccc(-n2cc(CNCCn3nc(C)cc3C)c(-c3ccc(F)cc3)n2)cc1,"inconclusive [inhibitor, single point]"
10,CCOC(=O)/C=C/COc1ccccc1[N+](=O)[O-],inactive
11,COCCNC(=O)c1cc(-c2ccc(-c3ccccc3)cc2)nc2ccccc12,active: 10 µM
12,COc1cc(CN2CCN(Cc3ccc(C)cc3)CC2)c([N+](=O)[O-])cc1OC,"inconclusive [inhibitor, partial curve]"
13,COc1ccccc1-n1cnnc1SCC(=O)c1cc(C)n(Cc2cccs2)c1C,"inconclusive [inhibitor, single point]"
14,CCOc1ccc(-n2c(SCc3nc(-c4ccc(C)cc4)no3)nnc2-c2ccncc2)cc1,"inconclusive [inhibitor, single point]"
15,CC(C)c1ccc(C(=O)N2CCN(c3cnn(C)c(=O)c3Cl)CC2)cc1,"inconclusive [inhibitor, single point]"
16,CC(NC(=O)CCn1nc(-c2ccc(Cl)cc2)ccc1=O)c1ccccc1 (configuration not stated),inactive
17,COc1ccc(CNC(=O)N2CCc3ccccc3C2)cc1,inactive
18,COc1cc([N+](=O)[O-])ccc1NC(=O)NCCCN1CCCC1=O,"inconclusive [inhibitor, partial curve]"
19,COc1ccc(-n2c(O)c(Cc3ccccc3)c(=O)n3nc(-c4ccccc4)c(=O)cc23)cc1,inactive
20,COc1ccccc1C(=O)NCC(=O)N=Nc1c(O)n(C(C)C)c2ccccc12,"inconclusive [inhibitor, single point]"
21,CS(=O)(=O)N(CC(=O)NCCSCc1c(F)cccc1Cl)c1ccc2c(c1)OCO2,"inconclusive [inhibitor, single point]"
22,COc1cc(OC)cc(C(=O)N/N=C(\C)CC(=O)Nc2ccccn2)c1,inactive
23,Nc1nonc1-n1nnc(C(=O)N/N=C/c2ccccc2Cl)c1COc1ccc(F)cc1,inactive
